To fix the notation:
B1: GFP-Ric8A [not stated] / nontagged Gαo G203R [human] (parent complex)
chain 1: MEPRAVADALETGEEDAVTEALRSFNREHSQSFTFDDAQQEDRKRLAKLLVSVLEQGLSPKHRVTWLQTIRILSRDRSCLDSFASRQSLHALACYADITVSEEPIPQSPDMDVLLESLKCLCNLVLSSPTAQMLAAEARLVVRLAERVGLYRKRSYPHEVQFFDLRLLFLLTALRTDVRQQLFQELHGVRLLTDALELTLGVAPKENPPVMLPAQETERAMEILKVLFNITFDSVKREVDEEDAALYRYLGTLLRHCVMVEAAGDRTEEFHGHTVNLLGNLPLKCLDVLLALELHEGSLEFMGVNMDVISALLAFLEKRLHQTHRLKECVAPVLNVLTECARMHRPARKFLKAQVLPPLRDVRTRPEVGDLLRNKLVRLMTHLDTDVKRVAAEFLFVLCSESVPRFIKYTGYGNAAGLLAARGLMAGGRPEGQYSEDEDTDTEEYREAKASINPVTGRVEEKPPNPMEGMTEEQKEHEAMKLVNMFDKLSRHRVIQPMGMSPRGHLTSLQDAMCETMEGQLSSDPDSDPD
chain 2: not shown
B2: GFP-Ric8A [not stated] / nontagged Gαo R209C [human] (parent complex)
chain 1: B1 chain 1
chain 2: not shown
B3: GFP-Ric8A [not stated] / nontagged Gαo E246K [human] (parent complex)
chain 1: B1 chain 1
chain 2: not shown

One assay covers variants of B1. Description: co-IP (anti-GFP nanobody) with Western blot quantification; N2a cells; partner is nontagged Gαo G203R; n = 4–5; parent: 1; read off a plot. (A western blot detects proteins with antibodies after separation by electrophoresis.)
Take chain 1 R75E: the ratio to parent was ~0.02.
Same read-out and setting: next, chain 1 K225A: ~0.43.

The next assay covers variants of B2. Description: co-IP (anti-GFP nanobody) with Western blot quantification; N2a cells; partner is nontagged Gαo R209C; n = 4–5; parent: 1; read off a plot.
Regarding chain 1 K225A, the ratio to parent is ~0.3.
In the case of chain 1 R75E, the ratio to parent was ~0.02.

Variants of B3 are the subject of a further assay. Description: co-IP (anti-GFP nanobody) with Western blot quantification; N2a cells; partner is nontagged Gαo E246K; n = 4–5; parent: 1; read off a plot.
chain 1 R75E: the ratio to parent is ~0.02.
For chain 1 K225A, the ratio to parent is ~0.33.

(Values after article PMC11291268 (2024).)
